# Test results reported in paper PMC4336329 (PLoS ONE, 2015).
# Among all 310,000 compounds or so, about 14,000 (4.5%) showed an effect of 50% or more. Effects have a minus sign here. This is one part of the list.
# Biological target: human ether-à-go-go-related gene (hERG) potassium channel (human, UniProt Q12809)
# Test: primary screen, population patch clamp on CHO cells stably expressing hERG
# 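Also: peak tail current of the secondary pulse compared with the same well before compound.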
# Sequence of human ether-à-go-go-related gene (hERG) potassium channel (Q12809 whole entry, looked up): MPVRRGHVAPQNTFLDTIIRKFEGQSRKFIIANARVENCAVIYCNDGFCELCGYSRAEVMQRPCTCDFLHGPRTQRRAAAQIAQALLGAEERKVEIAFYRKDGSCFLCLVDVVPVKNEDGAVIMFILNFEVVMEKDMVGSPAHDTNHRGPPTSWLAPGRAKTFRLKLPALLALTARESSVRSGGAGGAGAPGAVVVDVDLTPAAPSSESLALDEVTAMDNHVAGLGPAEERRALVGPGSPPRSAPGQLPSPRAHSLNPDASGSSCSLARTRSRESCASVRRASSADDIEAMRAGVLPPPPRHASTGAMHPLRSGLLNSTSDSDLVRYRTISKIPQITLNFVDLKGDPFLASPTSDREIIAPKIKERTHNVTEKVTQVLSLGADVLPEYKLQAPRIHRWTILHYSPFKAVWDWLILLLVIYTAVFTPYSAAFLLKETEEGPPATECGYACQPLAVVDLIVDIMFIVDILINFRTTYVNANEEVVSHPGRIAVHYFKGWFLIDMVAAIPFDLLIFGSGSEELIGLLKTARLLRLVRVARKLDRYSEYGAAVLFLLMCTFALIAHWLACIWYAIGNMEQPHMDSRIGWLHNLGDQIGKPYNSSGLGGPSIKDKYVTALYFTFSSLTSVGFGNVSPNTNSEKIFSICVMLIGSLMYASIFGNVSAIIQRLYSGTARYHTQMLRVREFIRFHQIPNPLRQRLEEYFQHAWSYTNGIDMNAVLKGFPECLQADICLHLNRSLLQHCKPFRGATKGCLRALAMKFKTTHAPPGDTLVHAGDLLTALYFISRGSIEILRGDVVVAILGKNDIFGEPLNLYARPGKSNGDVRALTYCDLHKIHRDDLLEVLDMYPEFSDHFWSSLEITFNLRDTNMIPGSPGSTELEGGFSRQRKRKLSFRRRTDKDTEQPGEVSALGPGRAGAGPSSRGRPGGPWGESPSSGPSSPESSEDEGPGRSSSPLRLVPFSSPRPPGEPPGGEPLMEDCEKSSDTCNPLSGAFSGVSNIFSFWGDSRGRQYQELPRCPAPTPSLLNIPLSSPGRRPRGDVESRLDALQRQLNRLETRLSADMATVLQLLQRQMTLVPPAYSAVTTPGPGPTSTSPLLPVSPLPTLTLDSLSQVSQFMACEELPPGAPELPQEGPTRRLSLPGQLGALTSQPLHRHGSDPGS
row,Structure (SMILES),"hERG current change (%, negative = inhibition) at 10uM [%]"
1,COc1ccc(NC(=O)CN(C)C(=O)c2cc(-c3cccs3)nn2-c2ccccc2)cc1,-2.86
2,O=C(O)COc1ccccc1/C=N/NC(=O)CSc1nnc(SCc2ccccc2)s1,5.64
3,Cc1c(NC(=O)C(C)OC(=O)c2ccc([N+](=O)[O-])s2)c(=O)n(-c2ccccc2)n1C (stereo not shown),-10.5
4,Cn1c(Cc2cccs2)nnc1SCC(=O)N1CCCc2ccccc21,-3.34
5,CNC(=S)NC1(C)CCS(=O)(=O)C1 (stereo not shown),10.2
6,COc1ccc(C)c2sc(NC(=O)CCS(=O)(=O)c3ccccc3)nc12,10.6
7,Cc1ccc(S(=O)(=O)n2nc(-c3ccco3)nc2N)cc1,-0.275
8,Cn1cc(CN2CCC(C(O)c3cccs3)CC2)c(-c2ccccc2F)n1 (stereo not shown),-21.5
9,CN1CCN(CC(O)COc2ccc(Cl)cc2)CC1.Cl (stereo not shown),-12.5
10,CSc1nc2ccc(S(=O)(=O)N(C)C)cc2s1,-3.62
11,O=C(CCc1nc2ccccc2c(=O)[nH]1)OCc1cccc(C(F)(F)F)c1,3.57
12,CC(C)(C)c1ccc(C(=O)NC(=S)Nc2ccc(N3CCOCC3)cc2)cc1,1.93
13,Cc1c(/C=N/NC(=O)c2ccc(O)cc2)c2ccccn2c1C(=O)c1ccc(F)cc1,16.7
14,COc1ccccc1N1CCN(CCCNC(=O)Nc2ccccc2)CC1,-59.8
15,O=C(CCCN1C(=O)/C(=C\c2ccccc2)SC1=S)Nc1cccc(C(=O)O)c1,3.27
16,NC(=O)C1CCN(C(=O)NC(=O)c2ccccc2)CC1,2.45
17,CCOC(=O)CN1C(=O)N[C@@H](CCc2ccccc2)C(C(=O)OC)=C1C,-3.41
18,COc1cccc(CN(C)C(=O)c2ccc(S(=O)(=O)N3CCCC3)cc2)c1OC,-17.7
19,CN1CCN(CCCN(Cc2cccs2)C(=S)Nc2ccc(Cl)cc2)CC1,-71.8
20,COc1ccc([N+](=O)[O-])cc1NC(=O)CC(C)c1ccccc1 (stereo not shown),-26.7
21,CCOc1ccc(NC(=O)NNC(=O)c2ccc(CC)s2)cc1,23.3
22,Cc1cc(C)cc(N(C(C)C(=O)NCc2ccc3c(c2)OCO3)S(C)(=O)=O)c1 (stereo not shown),4.95

row,Structure (SMILES),"hERG current change (%, negative = inhibition) at 10uM [%]"
1,CC1(C)C2([N+](=O)[O-])CN3CC1([N+](=O)[O-])CN(C2)C3c1ccccn1 (stereo not shown),18.1
2,Cc1ccc2nc(-c3ccccn3)cc(C(=O)Nc3ccc(S(=O)(=O)N4CCOCC4)cc3)c2c1,21.7
3,O=C(NC1=NCCS1)c1cccc2ccccc12,2.39
4,O=C(CC(=O)c1ccccc1O)c1ccc(F)cc1,8.24
5,CN1C[C@@H]2C(c3ccc(Cl)nc3)C3(c4cccnc4)CC2(C3)[C@H]1c1ccccc1 (stereo partly shown),-36.9
6,CS(=O)(=O)c1ccc(NC(=O)C2CC(=O)N(c3ccc4c(c3)OCCO4)C2)cc1 (stereo not shown),7.21
7,Cc1cc(NC(=O)CCC(=O)N(c2cccnc2)C(C(=O)NC2CCCC2)c2ccccc2)no1 (stereo not shown),14.6
8,COC(=O)CCCC(=O)Nc1c(F)c(F)c(F)c(F)c1F,-1.21
9,Cc1ccc(S(=O)(=O)N2CCN(C(=O)C(F)(F)F)C2c2ccc(N(C)C)cc2)cc1 (stereo not shown),12.6
10,CCNC(=O)C1CC(=O)N(c2ccc(Br)cc2)C1 (stereo not shown),2.64
11,CS(=O)(=O)Nc1ccc(C2=NN(C(=O)CCCC(=O)O)C(c3cccs3)C2)cc1 (stereo not shown),7.87
12,O=C(NC1(C(F)(F)F)N=C(c2ccccc2)NC1=O)c1ccccc1 (stereo not shown),9.08
13,O=C(CNC(=O)c1ccccc1Cl)N/N=C/C=C/c1ccccc1,7.26
14,CC(C)CC(NC(=O)c1ccccc1NC(=O)c1ccccc1)C(=O)O (stereo not shown),8.23
15,COc1ccc(NC(=O)C(OC)c2ccccc2)cc1Cl (stereo not shown),15.4
16,Oc1c(Br)cc(Br)cc1CNc1cnc2ccccc2c1,13.1
17,COc1cc(/C=N/Nc2ccccc2)ccc1OC(=O)c1cccs1,1.68
18,CCc1sc(NC(=O)COC)nc1-c1ccccc1,-8.7
19,COc1ccc(-c2nnn(Cc3nc(N)nc(N4CCCCC4)n3)n2)cc1,-9.06
20,COc1ccc(-n2nc(C(=O)NCC(=O)NCc3ccccc3OC)c3ccccc3c2=O)cc1,-69.5
21,O=C(CCn1c(=O)sc2ccccc21)NCCC1=CCCCC1,8.97
22,O=C(NCCCN1CCCC1=O)c1ccc2c(=O)n(-c3ccc(F)cc3)c(=S)[nH]c2c1,11.5

row,Structure (SMILES),"hERG current change (%, negative = inhibition) at 10uM [%]"
1,CC(C)C[C@H](NC(=O)N1CCn2c1nc1ccccc12)C(=O)N1CCCCC1,-3.14
2,CCOC(=O)c1c(C)[nH]c(C)c1C(=O)CSc1nnc(-c2ccco2)n1Cc1ccccc1,-19.3
3,COc1ccc(CCNC(=O)C23CN(Cc4ccccc4)CC2C(c2ccc([N+](=O)[O-])cc2)=NO3)cc1 (stereo not shown),-74.8
4,Cn1nc(C(C)(C)C)c(NC(=O)c2sccc2Cl)c1C(C)(C)C,-5.18
5,CC(=O)NNC(=S)Nc1cccc(F)c1,6.95
6,Cc1ccc(N2CCN(CCc3nc4cc(NC(=O)c5ccco5)ccc4n3C)CC2)cc1,-70.7
7,CNc1ncc(C(=O)c2ccc(Cl)c(Cl)c2)s1,-0.0564
8,COc1cc(NC(=O)COc2ccc(Cl)cc2)ccc1NC(=O)C(C)C,0.827
9,CCc1nnc(NC(=O)CSc2nnc3ncccn23)s1,19.2
10,COc1ccccc1-n1c(=O)[nH]c2c(C(N)=O)nc(CC(C)C)nc21,5.01
11,Cl.O=C(CCN1CCCCCC1)Nc1ccccc1F,-4.4
12,COc1ccc(-c2csc(NC(=O)CSc3nnnn3C)n2)cc1OC,8
13,CN(C)c1ccc(NC(=O)Cn2ncn3c(cc4ccccc43)c2=O)cc1,9.95
14,CCc1ccc(-c2nc(CS(=O)CC(=O)NC3CC3)c(C)o2)cc1 (stereo not shown),2.09
15,CCN1CCc2c(sc(NC(=S)NC(=O)c3ccccc3)c2C#N)C1,-6.15
16,Cn1nc(C(F)(F)F)c2cc(C(=O)O)sc21,14.4
17,COc1ccccc1C(=O)O/N=C(\N)c1ccccc1Cl,-4.6
18,O=C(NCC(c1ccco1)N1CCN(c2ccccc2)CC1)C(=O)NC1CCCCC1 (stereo not shown),4.91
19,COc1ccccc1CNC(=O)C1CC2Cn3c(nc4cc(C)c(C)cc43)C2N1C (stereo not shown),-27
20,Cc1ccccc1/C=N\NC(=O)c1ccccc1-n1cccc1,18.5
21,Cl.Fc1ccccc1Nc1nc(Cl)nc(Cl)n1,7.69
22,CCC(=O)Oc1ccc(-c2nc(-c3cccnc3)no2)cc1,12.7

row,Structure (SMILES),"hERG current change (%, negative = inhibition) at 10uM [%]"
1,O=C1CC(C(=O)N2CCN(c3ccccc3O)CC2)CN1Cc1ccccc1 (stereo not shown),-39.8
2,C=CCNc1cnn(-c2ccc(C)cc2)c(=O)c1Cl,-12.7
3,COc1ccc(C(=O)NCC2OCCc3ccccc32)cc1 (stereo not shown),-4.5
4,CCSc1nc2sc3c(c2c(=O)[nH]1)CC(C)(C)OC3,19.1
5,Cc1cc(C)n(C(=O)c2c([N+](=O)[O-])c(C)nn2C)n1,19.3
6,COc1ccc(NC(=O)c2ccc(Cl)nc2)cc1S(=O)(=O)N1CCOCC1,-10.5
7,COC(=O)C1=C(N)Oc2cc(C)n(C)c(=O)c2C1c1ccc(Cl)c(Cl)c1 (stereo not shown),20.3
8,O=C(NCc1ccco1)c1cccn2c(=O)c3sccc3nc12,-68.4
9,O=CN1CCN(c2ncnc3c2nnn3Cc2c(F)cccc2Cl)CC1,6.42
10,O=C(Nc1nccs1)c1ccccc1[N+](=O)[O-],-3.75
11,COc1ccc(NC2CC(=O)N(c3cccc([N+](=O)[O-])c3)C2=O)cc1 (stereo not shown),-10.6
12,O=C(N/N=C/c1cccc([N+](=O)[O-])c1O)c1cccs1,-14.7
13,CCOc1ccccc1-n1nnnc1SC(C)C(=O)OC (stereo not shown),3.98
14,COc1ccc2oc(=O)cc(CN3CCOCC3)c2c1,18.3
15,CN(C)C(CNC(=O)c1cccc(C(F)(F)F)c1)c1ccco1 (stereo not shown),-11.8
16,O=c1[nH]c(=O)n(Cc2ccccc2Cl)c(O)c1/C=C1/C=CC=N1,37.3
17,Cc1ccc(C2(c3ccc(C)cc3)CC2C(=O)NCc2cccnc2)cc1 (stereo not shown),8.65
18,CCOC(=O)c1ccc(NC(=O)c2nc[nH]c2C(=O)N(C)Cc2ccccc2)cc1,-11.1
19,NS(=O)(=O)c1ccc(CCNC(=O)C2CCCN(S(=O)(=O)c3cccnc3)C2)cc1 (stereo not shown),-4.22
20,Cc1cc([N+](=O)[O-])nn1CCC(=O)NC1CCCCCC1,15.7
21,O=C(NCCc1csc(-c2cccnc2)n1)c1cccc(Cl)c1,-17.7
22,COC(=O)C1=C(c2ccccc2OCc2ccccc2)C[C@@H]2CC[C@H]1N2C(=O)NCc1ccc(OC)c(OC)c1,-0.237
